The values that follow come from the supplement of paper PMC6089552.

Screen size: about 3,200 compounds; about 300 (9.4%) showed activity. Only a part is listed here, and it is no random draw.

The test system of the experiment is A673/TR/shEF. In words: cell viability (LOESS-normalised, relative to median of negative controls) (log2 ratio); higher = more viable cells (less compound effect), active = hit call of the paper (over 3 MAD below the median). As to conditions: treatment time: 72 h. In a few lines: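 Doxycycline, present or absent from 24 h before compounds, was used to induce EWS-FLI1 shRNA knockdown in A673/TR/shEF Ewing sarcoma cells at 1,500 per well in 384-well plates. Cells then received library compounds at two or more concentrations, or DMSO controls, for three days. Viability was measured by CellTiter-Glo luminescence on an Envision reader, and per-plate LOESS correction, division by the negative-control median and log2 transformation followed.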

Where [1] appears, read: 0.25 µM, library screen: screen1, EWS-FLI1 expression: high (no doxycycline).
The mark [2] stands for this setting: 0.25 µM, library screen: screen1, EWS-FLI1 expression: low (doxycycline-induced shRNA knockdown).
Where [3] appears, read: 2.5 µM, library screen: screen1, EWS-FLI1 expression: high (no doxycycline).
Where [4] appears, read: 2.5 µM, library screen: screen1, EWS-FLI1 expression: low (doxycycline-induced shRNA knockdown).
Where [5] appears, read: 0.25 µM, library screen: screen2, EWS-FLI1 expression: high (no doxycycline).
Setting [6] is: 0.25 µM, library screen: screen2, EWS-FLI1 expression: low (doxycycline-induced shRNA knockdown).
The mark [7] stands for this setting: 2.5 µM, library screen: screen2, EWS-FLI1 expression: high (no doxycycline).
[8] abbreviates: 2.5 µM, library screen: screen2, EWS-FLI1 expression: low (doxycycline-induced shRNA knockdown).

For `COc1cccc2c1cc([N+](=O)[O-])c1c(C(=O)O)cc3c(c12)OCO3`, the “cell viability (log2)” value is, setting by setting: under setting [1], inactive: 0.0105; under setting [2], inactive: 0.00257; under setting [3], active: -0.209; under setting [4], inactive: -0.0027.
Consider `COc1ccc2c3c1O[C@H]1[C@@H](O)CCC4[C@@H](C2)N(C)CC[C@@]341` (stereo partly specified), for which the “cell viability (log2)” value under setting [1] is inactive: 0.0725, the “cell viability (log2)” value under setting [2] was inactive: 0.0483, the “cell viability (log2)” value under setting [3] was inactive: 0.0123 and the “cell viability (log2)” value under setting [4] is inactive: 0.128.
The like results for `CC(=O)Nc1cc([As](=O)(O)O)ccc1O` were, in that order, inactive: 0.0629, inactive: 0.0714, inactive: 0.14 and inactive: 0.0911.
The like results for `C/C=C(\C)C(=O)O[C@H]1C[C@@H](OC(C)=O)[C@@]2(C(=O)OC)CO[C@H]3[C@@H](O)[C@@](C)([C@]45O[C@@]4(C)[C@H]4C[C@@H]5O[C@@H]5OC=C[C@@]54O)[C@H]4[C@]1(CO[C@]4(O)C(=O)OC)[C@@H]32` were, in that order, inactive: 0.103, inactive: 0.0233, inactive: 0.139 and inactive: -0.02.
`Cc1cc2c(C(C)C)c(O)c(O)c(C=O)c2c(O)c1-c1c(C)cc2c(C(C)C)c(O)c(O)c(C=O)c2c1O`: the “cell viability (log2)” value runs as follows: under setting [1], inactive: 0.077; under setting [2], inactive: 0.0973; under setting [3], inactive: 0.153; under setting [4], inactive: 0.186.
As to `CCCN1CC[C@@H]2c3cc(O)ccc3CC[C@@H]21`, the “cell viability (log2)” value runs as follows: under setting [5], inactive: 0.0449; under setting [6], inactive: -0.0153; under setting [7], inactive: 0.0773; under setting [8], inactive: 0.0525.
As for `O=c1[nH]c2ccccc2n1C1CCN(CCCC(c2ccc(F)cc2)c2ccc(F)cc2)CC1`, the “cell viability (log2)” value by setting is: under setting [1], inactive: 0.137; under setting [2], inactive: 0.115; under setting [5], inactive: 0.0689; under setting [6], inactive: 0.102; under setting [3], inactive: 0.12; under setting [4], inactive: -0.00591. Further, the “cell viability (log2)” value runs as follows: under setting [7], inactive: 0.108; under setting [8], inactive: 0.116.
For the compound `CC(=O)[O][Hg][c]1ccccc1`, the “cell viability (log2)” value by setting is: under setting [1], active: -0.557; under setting [3], active: -2.86; under setting [4], active: -2.46.
Regarding `C=CCN1CC[C@]23CCCC[C@H]2[C@H]1Cc1ccc(O)cc13`, the “cell viability (log2)” value by setting is: under setting [5], inactive: 0.184; under setting [6], inactive: 0.17; under setting [7], inactive: 0.208; under setting [8], inactive: 0.0718.
With `CC1(C)C(=O)C=C[C@]2(C)C1=C(O)C(=O)[C@@]1(C)[C@H]2CC[C@]2(C)[C@@H](c3ccoc3)C[C@@H]3O[C@]312`, the “cell viability (log2)” value reads like this: under setting [1], inactive: 0.0131; under setting [2], inactive: 0.0981; under setting [3], inactive: -0.0522; under setting [4], inactive: 0.0901.
Turning to `CCCCCCCCC(=O)NCc1ccc(O)c(OC)c1`, the “cell viability (log2)” value under setting [1] was inactive: 0.0243; the “cell viability (log2)” value under setting [2] is inactive: 0.0218; the “cell viability (log2)” value under setting [5] was inactive: 0.196; the “cell viability (log2)” value under setting [6] was inactive: 0.0548; the “cell viability (log2)” value under setting [3] is inactive: 0.0338; the “cell viability (log2)” value under setting [4] is inactive: 0.0518. The “cell viability (log2)” value is, setting by setting: under setting [7], inactive: 0.0799; under setting [8], inactive: 0.0818.
On to `NCCc1c[nH]c2ccc(C(N)=O)cc12`, for which the “cell viability (log2)” value by setting is: under setting [5], inactive: 0.189; under setting [6], inactive: 0.0794; under setting [7], inactive: 0.175; under setting [8], inactive: 0.145.
In the case of `O=S1(=O)N(CCN2CC=C(c3c[nH]c4cc(F)ccc34)CC2)c2cccc3c2N1CCC3`, the “cell viability (log2)” value is inactive: 0.126 under setting [5], inactive: 0.117 under setting [6], inactive: 0.118 under setting [7] and inactive: 0.102 under setting [8].
As for `N#CC(C#N)=Cc1ccc([N+](=O)[O-])c(O)c1`, the “cell viability (log2)” value reads like this: (0.025 µM, library screen: screen1, EWS-FLI1 expression: high (no doxycycline)) 0.298; (0.025 µM, library screen: screen1, EWS-FLI1 expression: low (doxycycline-induced shRNA knockdown)) inactive: 0.0132; under setting [1], 0.311; under setting [2], inactive: -0.0619; under setting [5], inactive: 0.0683; under setting [6], inactive: 0.016. Besides, the “cell viability (log2)” value was active: -0.131 under setting [3]; active: -0.169 under setting [4]; active: -0.559 under setting [7]; active: -0.298 under setting [8]; active: -0.408 (25 µM, library screen: screen1, EWS-FLI1 expression: high (no doxycycline)); active: -0.158 (25 µM, library screen: screen1, EWS-FLI1 expression: low (doxycycline-induced shRNA knockdown)).
With `Clc1ccc(N2CCN(Cc3c[nH]c4ncccc34)CC2)cc1`, the “cell viability (log2)” value under setting [5] was inactive: 0.202, the “cell viability (log2)” value under setting [6] was inactive: 0.143, the “cell viability (log2)” value under setting [7] is inactive: 0.163 and the “cell viability (log2)” value under setting [8] is inactive: 0.0993.
For the compound `CCn1cnc2c(Nc3cccc(Cl)c3)nc(N[C@@H]3CCCC[C@@H]3N)nc21`, the “cell viability (log2)” value reads like this: under setting [5], inactive: 0.222; under setting [6], inactive: 0.14; under setting [7], active: -0.199; under setting [8], inactive: -0.0222.
Regarding `NCCCNCCSP(=O)(O)O`, the “cell viability (log2)” value is, setting by setting: under setting [1], inactive: 0.0926; under setting [2], inactive: 0.068; under setting [5], inactive: 0.139; under setting [6], inactive: 0.0376; under setting [3], inactive: 0.0754; under setting [4], inactive: 0.129. Besides, the “cell viability (log2)” value was inactive: 0.152 under setting [7] and inactive: 0.065 under setting [8].
For the compound `CN1CCN(c2ccc3ccccc3n2)CC1`, the “cell viability (log2)” value is inactive: 0.212 under setting [5], inactive: 0.03 under setting [6], inactive: 0.14 under setting [7] and inactive: 0.0523 under setting [8].
Turning to `O=[N+]([O-])c1ccc(O)c([N+](=O)[O-])c1`, the “cell viability (log2)” value runs as follows: under setting [1], inactive: -0.0465; under setting [2], inactive: 0.0423; under setting [3], inactive: 0.0707; under setting [4], inactive: 0.0257.
The like results for `COc1cc(C(=O)O)cc(OC)c1OC` were, in that order, inactive: 0.0772, inactive: 0.104, inactive: 0.159 and inactive: 0.0844.
For `COC1=C[C@]23CCCN2CCc2cc4c(cc2[C@@H]3[C@@H]1O)OCO4`, the “cell viability (log2)” value is, setting by setting: under setting [1], inactive: 0.0464; under setting [2], inactive: 0.0537; under setting [3], inactive: 0.119; under setting [4], inactive: 0.159.
With `CNC(C)(C)Cc1ccccc1`, the “cell viability (log2)” value under setting [1] was inactive: 0.116, the “cell viability (log2)” value under setting [2] is inactive: 0.123, the “cell viability (log2)” value under setting [3] is inactive: 0.156 and the “cell viability (log2)” value under setting [4] is inactive: 0.0873.
Take `CCOP(=S)(OCC)Oc1cc(C)nc(C(C)C)n1`: the “cell viability (log2)” value is inactive: 0.0406 under setting [1], inactive: 0.0346 under setting [2], inactive: 0.11 under setting [3] and inactive: 0.125 under setting [4].
